# From PubChem BioAssay AID2546 (National Center for Advancing Translational Sciences (NCATS), 2010)
# Hit rate of the full screen: of about 310,000 compounds, about 11,000 (3.5%) were called active. This list was built around the results that the source calls inconclusive (neither active nor inactive); the mix of calls is not that of the screen. Calls come from the whole dose curve; as a rule, active = well fitted inhibition curve with a large enough effect; inconclusive = small, poorly fitted or top-dose-only effect, or effect the other way; inactive = flat fitted curve, though single readings scatter. No potency is given beside an inconclusive call; the fits are too rough.
# Test: VP16 counterscreen qHTS for inhibitors of ROR gamma transcriptional activity;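 note: Gal4-VP16 expression switched on by copper sulfate through the metallothionein promoter; nearly all actives have a fitted effect of over 50% in size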
# Settings: Drosophila S2 Gal4-VP16 UAS-luciferase, luminescence, 20 h; activity, negative = inhibition: at 53.6 µM (top of the series)
# % is set by controls: 0 for no effect and ±100 for the full control effect; potency is the fitted concentration of half-maximal effect; tags give direction and shape of the fitted curve.
SMILES,Potency,"activity, negative = inhibition"
O=S(=O)(NCc1ccncc1)c1ccc(Br)s1,active: 1.78 µM,–
CCC(C(=O)NC1CCCCC1)n1c(SCc2cccc(C)c2)nc2ccncc21 (stereo unspecified),"inconclusive [inhibitor, single point]",–
COc1ccc(-c2cc(=Nc3ccc(C(=O)O)cc3)c3cc(C)ccc3o2)cc1,"inconclusive [inhibitor, single point]",–
O=C(CCc1ccccc1)N1CCN(c2ccccn2)CC1,"inconclusive [inhibitor, full curve, poor fit]",–
Cc1cc2nc(-c3ccccc3)cc(=O)n2[nH]1,"inconclusive [inhibitor, single point]",–
Cc1noc(C)c1-c1cc(N(C)Cc2ccco2)ncn1,–,inactive: 22.4%
COc1ccc(CC(=O)Nc2cc(S(=O)(=O)N3CCCCC3)ccc2C)cc1OC,"inconclusive [inhibitor, single point]",–
COC(=O)c1ccc(-n2nnnc2SCc2ccccc2OC)cc1,"inconclusive [inhibitor, single point]",–
Cc1ccc(C)c(NC(=S)N2CCC(c3nc4ccccc4s3)CC2)c1,active: 6.31 µM,–
CC1=CC(C)(C)Nc2ccc(OC(=O)c3cccnc3)cc21,active: 0.794 µM,–
CCn1cc(-c2cc(C(=O)O)c3ccccc3n2)cn1,"inconclusive [inhibitor, partial curve]",–
COc1ccc2c(c1)C=C(C(=O)OCc1cccnc1)CO2,"inconclusive [inhibitor, single point]",–
Cc1ccccc1-c1nnn(Cc2ccc(-c3nn[nH]n3)cc2)n1,"inconclusive [inhibitor, single point]",–
Cc1ccc(-c2csc(NC(=O)c3ccc([N+](=O)[O-])o3)n2)cc1,"inconclusive [inhibitor, single point]",–
NC(=O)c1nsc(C(=O)N(c2ccc(Cl)cc2)C(C(=O)NCC2CCCO2)c2cccs2)c1N (stereo unspecified),–,inactive: -10.4%
CCOCc1[nH]c(=S)[nH]c(=O)c1Cc1ccc(OCC(C)C)cc1,–,inactive: 12.4%
Cc1cc(=O)nc2c3ccccc3n(CC(=O)NCCCN3CCOCC3)n12,"inconclusive [inhibitor, single point]",–
COc1ccc2c(c1)[nH]c1c(=O)n(/N=C/C3C(C)C=C(C)CC3C)c(=O)[nH]c12 (stereo unspecified),"inconclusive [inhibitor, single point]",–
C(=N\NC1=Nc2cccc3cccc1c23)/c1ccccc1,"inconclusive [inhibitor, single point]",–
Fc1ccc(C2=Nn3c(nnc3-c3ccco3)SC2)cc1,–,inactive: 37.1%
Fc1ccc(-c2ncc3ccccn23)cc1,–,inactive: -18.5%
CN1CCN(c2ccccc2NC(=O)COc2ccc(C3CCCCC3)cc2)CC1,"inconclusive [inhibitor, single point]",–
Cc1cc(N2CCCCC2)nc(NCc2ccccc2)n1,"inconclusive [inhibitor, single point]",–

SMILES,Potency,"activity, negative = inhibition"
N/C(=C/C(=O)c1ccccc1O)C(F)(F)F,"inconclusive [activator, single point]",–
COCCNC(=O)c1cccc(OC2CCN(Cc3cccc(SC)c3)CC2)c1,–,inactive: -0.306%
Nn1c(SCc2ccc(Br)cc2)nnc1-c1cccnc1,–,inactive: -5.48%
Cc1ccc(NC(=S)NC(=O)c2ccc(Br)o2)c(C)c1,"inconclusive [inhibitor, single point]",–
Cc1ccc(NC(=O)CNc2ccc(Cl)c(Cl)c2)cc1S(=O)(=O)N(C)C,"inconclusive [inhibitor, single point]",–
O=C(N/N=C/C(Br)=C/c1ccccc1)c1ccccc1[N+](=O)[O-],–,inactive: 5.27%
O=C(N/N=C/c1cccnc1)c1ccc(O)cc1,"inconclusive [inhibitor, single point]",–
Cc1cccc(NC(=O)c2c(O)c3ccccc3n(C)c2=O)c1,"inconclusive [inhibitor, single point]",–
CN(C)c1ccnc2c[cH-]cc12.[Fe].c1ccc(-[c-]2[c-](-c3ccccc3)[c-](-c3ccccc3)[c-](-c3ccccc3)[c-]2-c2ccccc2)cc1 (stereo unspecified),inactive,–
CCn1c(-c2cccc(S(=O)(=O)N3CCCC3)c2)n[nH]c1=S,–,inactive: -0.932%
S=c1[nH]nc(C2CCCCC2)n1/N=C/c1cccs1,"inconclusive [inhibitor, single point]",–
COc1ccc(/C=C/c2ccc3cccc(O)c3n2)c(OC)c1OC,"inconclusive [inhibitor, single point]",–
Cc1ccccc1NC(=O)COC(=O)c1ccc(CSc2ccc(Cl)cc2)cc1,"inconclusive [inhibitor, partial curve, poor fit]",–
Cc1cc(/C=N/n2c(COc3ccccc3)nc3ccccc3c2=O)c(O)c([N+](=O)[O-])c1,"inconclusive [inhibitor, single point]",–
NC(=O)Cc1ccc(Nc2nnc(-c3ccccc3)c3ccccc23)cc1,active: 22.4 µM,–
COc1ccc(CN2CCN(C(=O)c3cccc4ccccc34)CC2)cc1Br,"inconclusive [inhibitor, single point]",–
CC(O)CN(C)CC/C=C1/c2ccccc2CSc2ccccc21 (stereo unspecified),"inconclusive [activator, single point]",–
Cc1ccc(OCc2cc(C(=O)N(C)Cc3cc(C4CC4)n[nH]3)no2)cc1C,–,inactive: 3.23%
CCN(CC)c1ccc2c(O)cc(=O)oc2c1,–,inactive: -8.12%
Fc1ccc(CNC(=S)Nc2ccc(Cl)cc2)cc1,active: 15.8 µM,–
Cc1cccc(Nc2nnc(SCC(=O)Nc3ccc(C(=O)O)cc3)s2)c1,"inconclusive [inhibitor, partial curve]",–
O=C(N/N=C/c1cc(Br)cs1)c1c[nH]c2ccccc12,"inconclusive [inhibitor, partial curve]",–
O=[N+]([O-])c1cccc(S(=O)(=O)NCc2ccccn2)c1,"inconclusive [inhibitor, single point]",–
